Assay results: PubChem BioAssay AID686978 (National Center for Advancing Translational Sciences (NCATS), 2013)
Several values for one entry are separate records, joined by “and”; a condition that tells them apart may be missing. Equal values may be shown once. Among all 420,000 compounds or so, about 64,000 (15%) were called active. This list was built around the results that the source calls inconclusive (neither active nor inactive); the mix of calls is not that of the screen. Calls come from the whole dose curve; as a rule, active = well fitted inhibition curve with a large enough effect; inconclusive = small, poorly fitted or top-dose-only effect; inactive = flat fitted curve, though single readings scatter. Potencies beside an inconclusive call are fits to weak or partial responses and may not hold up.
% is set by controls: 0 for no effect and ±100 for the full control effect; potency is the fitted concentration of half-maximal effect; tags give direction and shape of the fitted curve.

Assay: qHTS for Inhibitors of human tyrosyl-DNA phosphodiesterase 1 (TDP1): qHTS in cells in absence of CPT; note: nearly all actives have a fitted effect of over 55% in size
Settings: DT40 Tdp1-/- hTDP1 cells, no CPT, ATP luminescence, 48 h; activity change, negative = growth inhibition: at 46.2 µM (top of the series) unless noted
In short: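 Luminescent ATP content (CellTiter-Glo) served as the growth readout. Knockout chicken DT40 cells expressing human TDP1 were exposed to compounds without camptothecin for a minimum 48 hr at 37 °C.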
In the case of COc1cc(OC)cc(C2=Cc3ccccc3C(CC(=O)c3ccco3)N2c2ccc(-c3cnc(OC)nc3)cc2)c1 (configuration not stated), the “activity change, negative = growth inhibition” value is reported as inactive: -20.1%.
With COc1cc(C2C(C#N)=C(N)Oc3c2ccc2ccccc32)ccc1OCC(=O)Nc1ccc(C)cc1 (configuration not stated) the Potency was inconclusive: 18.4 µM [inhibitor, single point].
For COC(=O)C1=C(N)Oc2cc(C)n(C)c(=O)c2C1c1ccc(Cl)c(Cl)c1 (configuration not stated), the Potency was inconclusive: 32.6 µM [inhibitor, single point].
For O=C1c2ccsc2SCCN1Cc1cccc(F)c1, the “activity change, negative = growth inhibition” value was inactive: -8.74%.
With CCCCCc1c(-c2ccc(Cl)cc2)ncn1CCc1ccccc1OC the Potency was active: 7.31 µM.
With Cc1ccc(C)c(S(=O)(=O)N2CCN(C(=O)/C=C/c3ccco3)CC2)c1 the “activity change, negative = growth inhibition” value was inactive: -27%.
For CN(C)C1=NCCN1CCC1CCCC1, the Potency was inconclusive: 11.6 µM [inhibitor, partial curve, poor fit].
With CCCN(CC1CC1)C(=S)NC(=O)c1cc(Br)ccc1Cl the Potency was active: 16.4 µM.
With O=c1n(Cc2ccccc2Cl)c2sc3c(c2c2ncnn12)CCCC3 the Potency was inconclusive: 16.4 µM [inhibitor, single point].
With C[C@@H]1CN([C@H](C)CO)C(=O)CCCn2nncc2CO[C@@H]1CN(C)C(=O)Nc1ccc(N2CCCCC2)cc1 the activity change, negative = growth inhibition was inconclusive: -28% [inhibitor].
In the case of Cc1ccccc1CS(=O)(=O)Cc1ccc(C(=O)NC2CCCC2)o1, the Potency is reported as inconclusive: 0.517 µM [inhibitor, full curve].
For CC1CN(c2nc3ccccc3nc2SCC(=O)Nc2ccc(F)cc2)CC(C)O1 (configuration not stated), the Potency was inconclusive: 29.1 µM [inhibitor, single point].
For O=C(NCCc1ccccc1)c1ccc(-c2ccccc2C(F)(F)F)o1, the Potency was inconclusive: 29.1 µM [inhibitor, single point].
With CCCCN(Cc1ccccc1)S(=O)(=O)c1c(N)n(C)c(=O)n(C)c1=O the “activity change, negative = growth inhibition” value was inactive: 0.187%.
In the case of CC(=O)c1ccc(OCc2cc(C(=O)N(C)CC3COc4ccccc4O3)no2)cc1 (configuration not stated), the Potency is reported as active: 13 µM.
With COc1cccc(OCc2cc(C(=O)N(Cc3ccccc3)CC3CC3)no2)c1 the activity change, negative = growth inhibition was inconclusive: -34.2% [inhibitor].
With Cc1cc(C)c(S(=O)(=O)NCCn2c(C)cc3ccccc32)c(C)c1 the Potency was inconclusive: 29.1 µM [inhibitor, single point].
With CCC1(CC)NC(=O)N(CC(=O)OC(C)C(=O)Nc2ccc(Cl)cn2)C1=O (configuration not stated) the “activity change, negative = growth inhibition” value was inactive: 6.11%.
With CCCSc1oc(-c2cccs2)nc1S(=O)(=O)c1ccc(C)cc1 the Potency was inconclusive: 29.1 µM [inhibitor, single point].
In the case of CCCn1cnc2cc(NCc3ccccc3O)ccc21, the Potency is reported as inconclusive: 29.1 µM [inhibitor, single point].
In the case of Clc1cccc(Nc2nnc(-c3ccccc3)c3ccccc23)c1, the Potency is reported as inconclusive: 11.9 µM [inhibitor, full curve] and inconclusive: 35.5 µM [inhibitor, single point].
In the case of CS(=O)(=O)N1CCN(C(=O)C(Sc2ccccc2)c2ccccc2)CC1 (configuration not stated), the “activity change, negative = growth inhibition” value is reported as inactive: -26.3%.
In the case of CC(C)(C)c1ccc(S(=O)(=O)NC(=O)C2(C)CCN2C(=O)CC2CCCCC2)cc1 (configuration not stated), the “activity change, negative = growth inhibition” value is reported as inactive: -5.47%.
For COc1ccc(NC(=O)Cn2c(=O)n(CCCCCC(=O)NCc3ccc4c(c3)OCO4)c(=O)c3sccc32)cc1Cl, the “activity change, negative = growth inhibition” value was inactive: -29.9%.
With CCOc1ccc(NC(=O)CCC(=O)NNC(=O)Nc2cccc(Cl)c2)cc1 the “activity change, negative = growth inhibition” value was inactive: 4.84%.
For O=C(Nc1cccc(C(=O)OCc2cc(=O)n3c4c(sc3n2)CCCC4)c1)c1ccc(Cl)cc1, the “activity change, negative = growth inhibition” value was inactive: -20.5%.
In the case of CCOc1cc(C(=O)OC(C)C(=O)Nc2ncc(Cl)cc2Cl)ccc1OCC(=O)N1CCOCC1 (configuration not stated), the Potency is reported as inconclusive: 18.4 µM [inhibitor, single point].
For C/C(=N\Nc1nc(C)c(C)s1)c1ccc([N+](=O)[O-])cc1, the Potency was active: 20.6 µM.
In the case of C=CCn1c(O)c(N=Nc2nc3ccccc3c(=O)n2-c2ccccc2)c2ccccc21, the Potency is reported as active: 11.6 µM.
In the case of CS(=O)(=O)c1ccc(Cl)c(NC(=O)CSc2n[nH]c(-c3cccs3)n2)c1, the Potency is reported as inconclusive: 29.1 µM [inhibitor, single point].
In the case of CCN(CC)C(=O)c1sc2c(c1C)c(=O)n(Cc1ccccc1)c(=O)n2Cc1cc(C)ccc1C, the Potency is reported as inconclusive: 29.1 µM [inhibitor, single point].
For COc1ccc(-c2nc(SC)n(C)c(=O)c2C#N)cc1OC, the Potency was inconclusive: 29.1 µM [inhibitor, single point].
With CC(C)(C)OC(=O)NCCCCCNC(=O)c1[nH]cnc1C(=O)Nc1cccc(Cl)c1 the Potency was inconclusive: 25.9 µM [inhibitor, single point].
In the case of O=C(CCN1C(=O)C2CCCCC2C1=O)Nc1nc2ccc(F)cc2s1 (configuration not stated), the activity change, negative = growth inhibition is reported as inconclusive: -31.9% [inhibitor].
For c1ccc(-c2nc(NCc3cccnc3)c3oc4ccccc4c3n2)cc1, the Potency was inconclusive: 29.1 µM [inhibitor, single point].
With O=C(COc1ccc(Cl)cc1Cl)Nc1c(-c2cccs2)nc2ccccn12 the “activity change, negative = growth inhibition” value was inactive: -27.5%.
With CCn1c(-c2cc(Br)ccc2O)n[nH]c1=S the “activity change, negative = growth inhibition” value was inactive: -20.8%.
With O=C(Nc1ccccc1)N(CCN1CCOCC1)Cc1ccccc1F the “activity change, negative = growth inhibition” value was inactive: -15.6%.
For CCc1ccc(S(=O)(=O)NCc2cccs2)cc1, the Potency was inconclusive: 18.4 µM [inhibitor, single point].
In the case of Cc1ccccc1-c1csc(C(O)c2cccc(Cl)c2)n1 (configuration not stated), the Potency is reported as inconclusive: 18.4 µM [inhibitor, single point].
With FC(F)(F)c1nc2ccccc2nc1N/N=C/c1ccc(Cl)cc1 the activity change, negative = growth inhibition was inconclusive: -30.5% [inhibitor].
With COC(=O)c1ccc(NC(=S)NCCc2ccccc2)cc1 the Potency was inconclusive: 9.2 µM [inhibitor, partial curve, poor fit].
For CCOc1ccc(CN2CCNC(=O)C2CC(=O)NCCc2ccccn2)cc1 (configuration not stated), the “activity change, negative = growth inhibition” value was inactive: -0.399%.
For C1=Nc2ccccc2/C1=C/c1ccccc1, the Potency was active: 12.6 µM.
With Cc1ccn2c(C=O)c(-c3ccc(F)cc3)c(C=O)c2c1 the “activity change, negative = growth inhibition” value was inactive: -26.1%.
For CCOC(=O)CN1C(=O)N[C@@H](CCc2ccccc2)[C@H](C(=O)OC)[C@H]1C, the “activity change, negative = growth inhibition” value was inactive: -20.1%.
With C[C@@H](C(=O)NC1CCCC1)N1C(=O)N2CCc3c([nH]c4ccccc34)[C@@]2(C)C1=O the Potency was inconclusive: 29.1 µM [inhibitor, single point].
